This is one part of the list.
Experiments:
Test in all cases: glycan array binding signal (z-score within array); higher = stronger binding
Details in all cases: glycan notation: IUPAC condensed, linker removed
[1] = target: GlcNAc(b1-3)Gal(b1-4)GlcNAc(b1-3)Gal(b1-4)GlcNAc(b1-3)Gal(b1-4)GlcNAc(b1-3)Gal(b1-4)GlcNAc(b1-2)[GlcNAc(b1-3)Gal(b1-4)GlcNAc(b1-3)Gal(b1-4)GlcNAc(b1-3)Gal(b1-4)GlcNAc(b1-3)Gal(b1-4)GlcNAc(b1-6)]Man(a1-6)[GlcNAc(b1-3)Gal(b1-4)GlcNAc(b1-3)Gal(b1-4)GlcNAc(b1-3)Gal(b1-4)GlcNAc(b1-3)Gal(b1-4)GlcNAc(b1-2)Man(a1-3)]Man(b1-4)GlcNAc(b1-4)[Fuc(a1-6)]GlcNAc
Procedure, shortened: (§1)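 Glycan array data came from 3228 arrays in the Consortium for Functional Glycomics database, and only arrays with an available protein sequence were kept. Glycan names were put into IUPAC-condensed notation, and columns mapping to the same glycan were averaged. The binding signal is a within-array Z-score, averaged across arrays of one protein sequence run at different concentrations or buffers and across linkers. A negative Z-score can be read as non-binding.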

[2] = target: GlcNAc(b1-3)Gal(b1-4)GlcNAc(b1-3)Gal(b1-4)GlcNAc(b1-3)GalNAc
Procedure, shortened: as §1

[3] = target: GlcNAc(b1-3)Gal(b1-4)GlcNAc(b1-3)GalNAc
Procedure, shortened: as §1

[4] = target: GlcNAc(b1-3)Gal(b1-4)GlcNAc(b1-3)[GlcNAc(b1-3)Gal(b1-4)GlcNAc(b1-3)]GalNAc
Procedure, shortened: as §1

[5] = target: GlcNAc(b1-3)Gal(b1-4)GlcNAc(b1-6)[Gal(b1-3)]GalNAc
Procedure, shortened: as §1

[6] = target: GlcNAc(b1-3)Gal(b1-4)GlcNAc(b1-6)[GlcNAc(b1-3)Gal(b1-3)]GalNAc
Procedure, shortened: as §1

[7] = target: GlcNAc(b1-3)Gal(b1-4)GlcNAc(b1-6)[GlcNAc(b1-3)]Gal(b1-4)GlcNAc
Procedure, shortened: as §1

[8] = target: GlcNAc(b1-3)GalNAc
Procedure, shortened: as §1

[9] = target: GlcNAc(b1-3)Man
Procedure, shortened: as §1

[10] = target: GlcNAc(b1-3)[GlcNAc(b1-4)][GlcNAc(b1-6)]GlcNAc
Procedure, shortened: as §1

[11] = target: GlcNAc(b1-3)[GlcNAc(b1-6)]Gal(b1-4)GlcNAc
Procedure, shortened: as §1

[12] = target: GlcNAc(b1-3)[GlcNAc(b1-6)]GalNAc
Procedure, shortened: as §1

[13] = target: GlcNAc(b1-4)Gal(b1-4)GlcNAc
Procedure, shortened: as §1

[14] = target: GlcNAc(b1-4)GlcNAc
Procedure, shortened: as §1

[15] = target: GlcNAc(b1-4)GlcNAc(b1-4)GlcNAc
Procedure, shortened: as §1

[16] = target: GlcNAc(b1-4)GlcNAc(b1-4)GlcNAc(b1-4)GlcNAc(b1-4)GlcNAc
Procedure, shortened: as §1

[17] = target: GlcNAc(b1-4)GlcNAc(b1-4)GlcNAc(b1-4)GlcNAc(b1-4)GlcNAc(b1-4)GlcNAc
Procedure, shortened: as §1

[18] = target: GlcNAc(b1-4)[GlcNAc(b1-6)]GalNAc
Procedure, shortened: as §1

[19] = target: GlcNAc(b1-6)Gal(b1-4)GlcNAc
Procedure, shortened: as §1

[20] = target: GlcNAc(b1-6)GalNAc
Procedure, shortened: as §1

[21] = target: GlcNAc6S(b1-3)Gal(b1-4)GlcNAc
Procedure, shortened: as §1

[22] = target: Kdn(a2-3)Gal(b1-3)GalNAc
Procedure, shortened: as §1

[23] = target: Kdn(a2-3)Gal(b1-3)GlcNAc
Procedure, shortened: as §1

[24] = target: Kdn(a2-3)Gal(b1-4)Glc
Procedure, shortened: as §1

[25] = target: Kdn(a2-3)Gal(b1-4)GlcNAc
Procedure, shortened: as §1

[26] = target: Kdn(a2-3)Gal(b1-4)[Fuc(a1-3)]GlcNAc
Procedure, shortened: as §1

[27] = target: Kdn(a2-6)Gal(b1-4)GlcNAc
Procedure, shortened: as §1

[28] = target: Man(a1-2)Man(a1-2)Man(a1-3)Man
Procedure, shortened: as §1

[29] = target: Man(a1-2)Man(a1-2)Man(a1-6)[Man(a1-3)]Man
Procedure, shortened: as §1

[30] = target: Man(a1-2)Man(a1-3)Man
Procedure, shortened: as §1

[31] = target: Man(a1-2)Man(a1-3)[Man(a1-2)Man(a1-6)]Man
Procedure, shortened: as §1

[32] = target: Man(a1-2)Man(a1-3)[Man(a1-2)Man(a1-6)]Man(a1-6)[Man(a1-2)Man(a1-2)Man(a1-3)]Man
Procedure, shortened: as §1

[33] = target: Man(a1-2)Man(a1-3)[Man(a1-2)Man(a1-6)]Man(a1-6)[Man(a1-2)Man(a1-2)Man(a1-3)]Man(b1-4)GlcNAc(b1-4)GlcNAc
Procedure, shortened: as §1

[34] = target: Man(a1-2)Man(a1-3)[Man(a1-6)]Man(a1-6)[Man(a1-2)Man(a1-3)]Man(b1-4)GlcNAc(b1-4)GlcNAc
Procedure, shortened: as §1

[35] = target: Man(a1-2)Man(a1-6)[Man(a1-3)]Man(a1-6)[Man(a1-2)Man(a1-2)Man(a1-3)]Man
Procedure, shortened: as §1

[36] = target: Man(a1-2)Man(a1-6)[Man(a1-3)]Man(a1-6)[Man(a1-2)Man(a1-2)Man(a1-3)]Man(b1-4)GlcNAc(b1-4)GlcNAc
Procedure, shortened: as §1

[37] = target: Man(a1-3)[Man(a1-6)]Man
Procedure, shortened: as §1

[38] = target: Man(a1-3)[Man(a1-6)]Man(a1-6)[Man(a1-2)Man(a1-3)]Man(b1-4)GlcNAc(b1-4)GlcNAc
Procedure, shortened: as §1

[39] = target: Man(a1-3)[Man(a1-6)]Man(a1-6)[Man(a1-3)]Man
Procedure, shortened: as §1

[40] = target: Man(a1-3)[Man(a1-6)]Man(a1-6)[Man(a1-3)]Man(b1-4)GlcNAc(b1-4)GlcNAc
Procedure, shortened: as §1

[41] = target: Man(a1-3)[Man(a1-6)]Man(b1-4)GlcNAc(b1-4)GlcNAc
Procedure, shortened: as §1

[42] = target: Man(a1-3)[Man(a1-6)]Man(b1-4)GlcNAc(b1-4)[Fuc(a1-6)]GlcNAc
Procedure, shortened: as §1

[43] = target: Man(a1-6)Man
Procedure, shortened: as §1

[44] = target: Man(b1-4)GlcNAc
Procedure, shortened: as §1

[45] = target: MurNAc(b1-4)GlcNAc
Procedure, shortened: as §1

B1: LICBM33A (Lactococcus lactis), Q9CE94 (protein)
chain: MKKLLTGLLVAAGLLSVSLLIKTDTVSAHGYVQSPPARGYQGQLDSQSLGWTAAFNIYGNVISNPQSLEAPKGFPECGPADGRIASANGGLGQIGDFVLDNQTSSRWKKTSISTGSNIFTWKYTAPHKTTKWHYYMTKTGWDQNAPLKHSELELIGTINHDGSPATNNLSHTINIPTDRSGYHIVLAVWDVADTSNAFYNVIDINVNNKNASSQVFGPFL
glycan array binding signal (z-score) [1]: -0.382 | glycan array binding signal (z-score) [2]: -0.342 | glycan array binding signal (z-score) [3]: -0.499 | glycan array binding signal (z-score) [4]: -0.2 | glycan array binding signal (z-score) [5]: 1.98 | glycan array binding signal (z-score) [6]: -0.463 | glycan array binding signal (z-score) [7]: -0.551 | glycan array binding signal (z-score) [8]: -0.659 | glycan array binding signal (z-score) [9]: 0.023 | glycan array binding signal (z-score) [10]: -0.619 | glycan array binding signal (z-score) [11]: -0.565 | glycan array binding signal (z-score) [12]: -0.909 | glycan array binding signal (z-score) [13]: -0.614 | glycan array binding signal (z-score) [14]: 0.592 | glycan array binding signal (z-score) [15]: 0.407 | glycan array binding signal (z-score) [16]: -0.337 | glycan array binding signal (z-score) [17]: 0.08 | glycan array binding signal (z-score) [18]: -0.068 | glycan array binding signal (z-score) [19]: -0.043 | glycan array binding signal (z-score) [20]: 0.954 | glycan array binding signal (z-score) [21]: 0.72 | glycan array binding signal (z-score) [22]: 0.04 | glycan array binding signal (z-score) [23]: -0.522 | glycan array binding signal (z-score) [24]: 0.82 | glycan array binding signal (z-score) [25]: -0.667 | glycan array binding signal (z-score) [26]: 0.288 | glycan array binding signal (z-score) [27]: 2.03 | glycan array binding signal (z-score) [28]: -0.369 | glycan array binding signal (z-score) [29]: -0.156 | glycan array binding signal (z-score) [30]: -0.647 | glycan array binding signal (z-score) [31]: -0.559 | glycan array binding signal (z-score) [32]: -0.427 | glycan array binding signal (z-score) [33]: 1.98 | glycan array binding signal (z-score) [34]: -0.219 | glycan array binding signal (z-score) [35]: -0.487 | glycan array binding signal (z-score) [36]: 0.044 | glycan array binding signal (z-score) [37]: 0.32 | glycan array binding signal (z-score) [38]: 1.78 | glycan array binding signal (z-score) [39]: 0.027 | glycan array binding signal (z-score) [40]: -0.43 | glycan array binding signal (z-score) [41]: 0.527 | glycan array binding signal (z-score) [42]: -0.355 | glycan array binding signal (z-score) [43]: -0.318 | glycan array binding signal (z-score) [44]: -0.147 | glycan array binding signal (z-score) [45]: 0.591
